{
  "source": "PubChem BioAssay AID488969",
  "about": "(Vanderbilt High Throughput Screening Facility, 2010)",
  "note": "Whole data set: some 110,000 compounds, median “z-score” near -0.1, cut for the highest 2% near 2. The list shows a part of the results.",
  "data": [
    {"biological_target": "Metabotropic glutamate receptor 8 (Rattus norvegicus) (UniProt P70579)", "sequence (P70579 whole entry, looked up)": "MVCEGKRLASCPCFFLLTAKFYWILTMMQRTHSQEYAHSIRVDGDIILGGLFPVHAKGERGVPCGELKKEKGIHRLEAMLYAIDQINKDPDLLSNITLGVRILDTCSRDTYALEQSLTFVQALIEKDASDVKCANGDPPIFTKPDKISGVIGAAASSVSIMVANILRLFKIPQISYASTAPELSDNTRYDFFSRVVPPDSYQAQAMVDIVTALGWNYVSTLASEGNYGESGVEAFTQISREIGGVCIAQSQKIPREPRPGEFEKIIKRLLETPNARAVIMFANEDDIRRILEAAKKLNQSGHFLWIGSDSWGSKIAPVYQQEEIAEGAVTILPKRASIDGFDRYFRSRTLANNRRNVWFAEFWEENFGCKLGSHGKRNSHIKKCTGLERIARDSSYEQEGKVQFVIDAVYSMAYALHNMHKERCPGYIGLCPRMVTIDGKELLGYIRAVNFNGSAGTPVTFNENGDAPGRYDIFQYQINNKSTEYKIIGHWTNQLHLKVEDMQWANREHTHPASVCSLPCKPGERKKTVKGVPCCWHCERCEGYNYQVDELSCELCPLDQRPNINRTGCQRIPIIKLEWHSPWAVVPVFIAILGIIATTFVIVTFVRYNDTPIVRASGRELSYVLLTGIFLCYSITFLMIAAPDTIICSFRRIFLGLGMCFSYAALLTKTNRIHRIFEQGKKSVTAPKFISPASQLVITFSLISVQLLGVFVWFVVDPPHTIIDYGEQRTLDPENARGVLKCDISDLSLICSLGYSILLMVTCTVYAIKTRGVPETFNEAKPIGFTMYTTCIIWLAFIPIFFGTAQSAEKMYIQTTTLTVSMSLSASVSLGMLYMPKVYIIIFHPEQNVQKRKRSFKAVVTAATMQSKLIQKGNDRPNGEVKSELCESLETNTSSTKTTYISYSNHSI", "test": "mGluR8 Gi/Go-coupled signaling modulation – cell-based, rat, thallium flux, HTS, primary screen (AID 488969)", "conditions": "HEK293 rat mGluR8, GIRK (G protein-gated inwardly rectifying potassium channel) thallium flux, FluoZin2; at 10 µM; stronger effect = higher value; submaximal glutamate (EC20) added with thallium", "values": [
      {"smiles": "CCCCOc1ccc(C2=NNC(=O)CC2)cc1", "z-score": -0.538},
      {"smiles": "O=C(Nc1ccccc1N1CCOCC1)c1cccs1", "z-score": 0.511},
      {"smiles": "C=CCN=C1SC(C)C(=O)N1S(=O)(=O)c1ccccc1", "note": "(centres undefined)", "z-score": 0.65},
      {"smiles": "CCc1c(C)sc(NC(=O)c2cnn3cccnc23)c1C#N", "z-score": 0.33},
      {"smiles": "COc1ccc(C(=O)Nc2ccc3c(c2)Cc2ccccc2-3)cc1", "z-score": 0.0325},
      {"smiles": "CC12CN(Cc3ccccc3)CC(C)(CN(Cc3ccccc3)C1)C2=NO", "z-score": 2.4},
      {"smiles": "COc1ccc(C(=O)OC(C)C(=O)Nc2cc(C(F)(F)F)ccc2Cl)c(OC)c1OC", "note": "(centres undefined)", "z-score": -0.379},
      {"smiles": "Cc1nnc(NC(=O)CN2C(=O)c3ccccc3S2(=O)=O)s1", "z-score": 1.88},
      {"smiles": "O=C(CNC(=O)C1CCCCC1)Nc1cc(Cl)ccc1Cl", "z-score": -0.102},
      {"smiles": "CCOC(=O)c1ccc(NC2=CC(=O)C(=O)c3ccccc32)cc1", "z-score": -0.548},
      {"smiles": "C#CC(=O)N(c1cc(OC)ccc1OC)C(C(=O)NC1CCCC1)c1cccs1", "note": "(centres undefined)", "z-score": -0.0546},
      {"smiles": "COc1ccc(NC(=O)Cc2c(F)cccc2Cl)c(OC)c1", "z-score": -0.567},
      {"smiles": "COc1ccc(NC(=O)NCc2ccccn2)cc1", "z-score": 0.00957},
      {"smiles": "Cc1[nH]c2ccccc2c1C(=O)CSc1nncn1C", "z-score": -0.111},
      {"smiles": "CCOC(=O)CSc1nnc(-c2cccnc2)n1Cc1ccccc1", "z-score": 0.462},
      {"smiles": "S=C(NCc1ccncc1)Nc1ccc(Cl)c(Cl)c1", "z-score": 1.78},
      {"smiles": "CCCCOC(=O)C(C)Oc1ccc(=O)n(-c2ccccc2)n1", "note": "(centres undefined)", "z-score": -0.164},
      {"smiles": "Cc1onc(-c2ccccc2)c1C(=O)N1CCN(CCc2ccccc2)CC1", "z-score": -0.591},
      {"smiles": "COc1ccc(-n2nc(N)c3c(=O)oc(N(C)C)nc32)cc1", "z-score": -0.0834},
      {"smiles": "Cc1noc(C)c1C(=O)NC1CCCc2ccccc21", "note": "(centres undefined)", "z-score": 0.0903},
      {"smiles": "O=C(Cn1[nH]c(=O)c2ccccc2c1=O)NCc1cccnc1", "z-score": -0.377},
      {"smiles": "CCN(CC)c1ccc(NC(=O)CN2CCN(S(=O)(=O)c3cc(Cl)ccc3OC)CC2)cc1", "z-score": -0.269},
      {"smiles": "Cc1ccc(N(CC(=O)Nc2ccccc2C(=O)N2CCOCC2)S(C)(=O)=O)cc1", "z-score": 0.00258},
      {"smiles": "COc1cccc(C2c3c(-c4ccccc4)n[nH]c3C(=O)N2c2ccc(C(=O)O)cc2)c1", "note": "(centres undefined)", "z-score": -0.182},
      {"smiles": "N#Cc1c(NC(=O)CCn2cnc3ccccc3c2=O)oc(-c2ccccc2)c1-c1ccccc1", "z-score": -0.279},
      {"smiles": "COc1ccc(C)cc1S(=O)(=O)N1CCCCC1", "z-score": -0.208},
      {"smiles": "COc1ccccc1NC(=O)CN1CCN(c2ccccc2F)CC1", "z-score": -0.346},
      {"smiles": "CN(CC(=O)O/N=C(\\N)c1cccc([N+](=O)[O-])c1)S(=O)(=O)c1ccccc1", "z-score": -0.668},
      {"smiles": "O=C(CN1CCC2(CC1)OCCO2)c1c[nH]c2ccccc12", "z-score": 0.393},
      {"smiles": "CC(CCc1ccc(O)cc1)N(C)CCc1ccccc1", "note": "(centres undefined)", "z-score": 0.807},
      {"smiles": "Cc1ccccc1C(=O)Nc1cccc(N)c1", "z-score": 0.142},
      {"smiles": "Cc1ccc(NC(=O)COc2ccc(S(=O)(=O)N3CCOCC3)cc2)cc1", "z-score": -0.358},
      {"smiles": "Cc1[nH]c2ccccc2c1C(=O)CN1CCCCC1CCO", "note": "(centres undefined)", "z-score": -0.607},
      {"smiles": "Fc1nc(N2CCCC2)c(F)c(Oc2ccccc2Oc2c(F)c(F)nc(N3CCCC3)c2F)c1F", "z-score": -0.167},
      {"smiles": "CC(C)CC(=O)N1CCN(S(=O)(=O)c2ccc3ccccc3c2)CC1", "z-score": -1.99},
      {"smiles": "Cn1c(=O)n(C)c2cc(NC(=O)c3cc4ccccc4o3)ccc21", "z-score": -0.265},
      {"smiles": "Cc1cccc(NC(=O)CSc2nc3ccccc3c3nc(CCc4c(C)n[nH]c4C)nn23)c1", "z-score": 0.29},
      {"smiles": "Cn1c(=O)[nH]c(=O)c2c1nc(SCCN1CCOCC1)n2CCCc1ccccc1", "z-score": 0.05},
      {"smiles": "Cc1c(C#N)c(N=CN(C)C)c(C(=O)c2ccc(Br)cc2)n1-c1ccccc1", "z-score": 0.909},
      {"smiles": "COC(=O)c1cc(COC(=O)c2cccnc2SC)oc1C", "z-score": -0.0574},
      {"smiles": "COc1ccc(C(=O)NCCCn2ccnc2)cc1", "z-score": 0.238},
      {"smiles": "CC(C)(C)n1nnnc1C(c1ccc(F)cc1)N1CCN(Cc2ccc3c(c2)OCO3)CC1", "note": "(centres undefined)", "z-score": -0.285},
      {"smiles": "CC(C)CCN1C(=O)c2ccc(-c3nc4ccccc4c(=O)o3)cc2C1=O", "z-score": -0.897},
      {"smiles": "COc1cccc(C(=O)Oc2c(CN3CCOCC3)cc(Cl)c3cccnc23)c1", "z-score": -0.276},
      {"smiles": "Cc1ccc(C)c(N2CCN(C(=O)Cn3c(=O)[nH]c4ccsc4c3=O)CC2)c1", "z-score": 0.361},
      {"smiles": "CC1(CC(=O)O)C(=O)N=C2C=CC=CN21", "note": "(centres undefined)", "z-score": 0.954},
      {"smiles": "CCn1c(SCC(=O)Nc2nccs2)nnc1-c1ccc(C)cc1", "z-score": -0.755},
      {"smiles": "COc1ccccc1-c1cc(C(=O)NCCc2ccccc2)no1", "z-score": 0.025},
      {"smiles": "N/C(=N\\OC(=O)c1ccccc1Cl)c1ccccc1", "z-score": -0.0875},
      {"smiles": "CC(C)c1nnc(NC(=O)C2CCCCC2)s1", "z-score": -0.261},
      {"smiles": "CC(c1nnc(SCC(=O)NC(=O)NCc2ccco2)n1-c1ccc(Cl)cc1)N(C)C", "note": "(centres undefined)", "z-score": 0.264},
      {"smiles": "CN(C)C(=O)COC(=O)[C@H](Cc1ccccc1)NC(=O)c1ccco1", "z-score": 0.0766},
      {"smiles": "Cc1ccc(NC(=O)c2ccccc2F)nc1", "z-score": 0.244},
      {"smiles": "COC(=O)COc1ccc(S(=O)(=O)Nc2ccc3c(c2)OCCO3)cc1Cl", "z-score": -0.523}
    ]}
  ]
}
